This is an account of results in the antibiotic and cytotoxicity screens of Wong et al. (2023).

The structures appear in SMILES notation. Some of the results follow.

The subject of assay [1] is HSkMC (human skeletal muscle cells). In words: cytotoxicity call (relative viability < 0.9). The conditions noted are these: 10 µM.
The test system of assay [2] is HepG2. Description: cytotoxicity call (relative viability < 0.9). To be noted: 10 µM.
For assay [3], the system named is S. aureus RN4220. Description: growth inhibition call (relative growth <= 0.2). The conditions noted are these: 50 µM.

With `N=C(N)c1ccc(C(N)=O)cc1`, the cytotoxicity call in assay [1] and in assay [2] was “inactive” each time. Besides, the growth inhibition call in assay [3] was “inactive”.

Consider `C[C@@H]1CCCCO[C@H](CN(C)S(=O)(=O)c2cccs2)[C@H](C)CN([C@H](C)CO)C(=O)c2cc(NS(C)(=O)=O)ccc2O1`, for which the cytotoxicity call in assay [1] and in assay [2] was “inactive” each time. In assay [3], the growth inhibition call was “inactive”.

For `COCC(=O)N1C[C@@H](C)[C@@H](OC)CN(C)C(=O)c2cc(NC(=O)c3ccc(F)cc3)ccc2OC[C@H]1C`, the cytotoxicity call in assay [1] and in assay [2] was “inactive” in each case. The growth inhibition call in assay [3] was “inactive”.

As for `C[C@H](CO)N1C[C@H](C)[C@H](CN(C)S(=O)(=O)c2ccccc2)OCCCC[C@H](C)Oc2ccc(NC(=O)Nc3ccc(C(F)(F)F)cc3)cc2C1=O`, the cytotoxicity call in assay [1] and in assay [2] was “inactive” in each case. Besides, the growth inhibition call in assay [3] was “inactive”.

Consider `CC12CCC3c4ccc(O)cc4CCC3C1CCC2OC(=O)CCC1CCCC1` (configuration not stated), for which the cytotoxicity call in assay [1] is “active”. Besides, the cytotoxicity call in assay [2] was “inactive”. Moreover, in assay [3], the growth inhibition call was “inactive”.

For `C[C@@H]1CCCCO[C@@H](CN(C)Cc2ccccc2)[C@H](C)CN([C@H](C)CO)C(=O)c2cc(NS(=O)(=O)c3ccc(F)cc3)ccc2O1`, the cytotoxicity call in assay [1] and in assay [2] was “inactive” each time. The growth inhibition call in assay [3] is “inactive”.

Consider `CC(C)NC(=O)N(C)C[C@@H]1Oc2c(NS(=O)(=O)c3ccc(F)cc3)cccc2C(=O)N([C@@H](C)CO)C[C@H]1C`, for which the cytotoxicity call in assay [1] and in assay [2] was “inactive” each time. In addition, the growth inhibition call in assay [3] is “inactive”.

Consider `C[C@@H]1CN([C@@H](C)CO)C(=O)Cc2cc(NS(=O)(=O)c3cccs3)ccc2O[C@@H]1CN(C)Cc1ccncc1`, for which the cytotoxicity call in assay [1] and in assay [2] was “inactive” each time. Besides, the growth inhibition call in assay [3] is “inactive”.

`CCCNC(=O)N(C)C[C@@H]1Oc2cc(C#Cc3cccc(F)c3)ccc2S(=O)(=O)N([C@H](C)CO)C[C@H]1C`: the cytotoxicity call in assay [1] and in assay [2] was “inactive” each time. Also, the growth inhibition call in assay [3] was “inactive”.

For the compound `COc1cccc(C(=O)Nc2ccc3c(c2)C(=O)N(C)[C@H]2CC[C@H](CC(=O)NCC(F)(F)F)O[C@@H]2CO3)c1`, the cytotoxicity call in assay [1] and in assay [2] was “inactive” each time. Also, the growth inhibition call in assay [3] is “inactive”.

Consider `C[C@@H]1CCCCO[C@@H](CN(C)C(=O)c2ccccc2)[C@H](C)CN([C@@H](C)CO)C(=O)c2cc(NC(=O)NC3CCCCC3)ccc2O1`, for which the cytotoxicity call in assay [1] and in assay [2] was “inactive” in each case. In addition, in assay [3], the growth inhibition call is “inactive”.

For `C[C@H](CO)N1C[C@H](C)[C@@H](CN(C)S(=O)(=O)c2cn(C)cn2)Oc2ccc(NC(=O)NC3CCCCC3)cc2CC1=O`, the cytotoxicity call in assay [1] and in assay [2] was “inactive” each time. In addition, the growth inhibition call in assay [3] is “inactive”.

For the compound `C[C@@H]1CN([C@H](C)CO)C(=O)CCCn2cc(nn2)CO[C@@H]1CN(C)C(=O)Nc1cccc2ccccc12`, the cytotoxicity call in assay [1] and in assay [2] was “inactive” in each case. In addition, the growth inhibition call in assay [3] is “inactive”.

On to `C[C@@H]1CN([C@H](C)CO)S(=O)(=O)c2ccc(C#CC3(O)CCCC3)cc2O[C@H]1CN(C)C(=O)c1ccccc1`, for which the cytotoxicity call in assay [1] and in assay [2] was “inactive” in each case. For the same compound, the growth inhibition call in assay [3] was “inactive”.

Consider `Cc1cccc(NC(=O)C(=O)NCCCO)c1`, for which the cytotoxicity call in assay [1] and in assay [2] was “inactive” each time. Besides, the growth inhibition call in assay [3] was “inactive”.

For the compound `C[C@@H]1CN([C@@H](C)CO)C(=O)Cc2cc(NC(=O)Nc3ccc(F)cc3)ccc2O[C@@H]1CN(C)Cc1ccc(C(F)(F)F)cc1`, the cytotoxicity call in assay [1] and in assay [2] was “active” in each case. Also, the growth inhibition call in assay [3] was “inactive”.

Take `CC(C)c1c(O)c(-c2cc3c(c(C(C)C)c2O)CC[C@H]2C(C)(C)CCC[C@]32C)cc2c1CC[C@H]1C(C)(C)CCC[C@]21C`: the cytotoxicity call in assay [1] and in assay [2] was “inactive” in each case. The growth inhibition call in assay [3] was “inactive”.

In the case of `C[C@@H]1CN([C@H](C)CO)C(=O)Cc2cc(NC(=O)C3CCCCC3)ccc2O[C@@H]1CN(C)S(C)(=O)=O`, the cytotoxicity call in assay [1] and in assay [2] was “inactive” each time. Besides, the growth inhibition call in assay [3] is “inactive”.

Turning to `CNC(=O)c1ccc(OC(C)=O)cc1`, the cytotoxicity call in assay [1] and in assay [2] was “inactive” in each case. In addition, the growth inhibition call in assay [3] was “inactive”.

On to `CC(C)CC#Cc1cnc2c(c1)C(=O)N([C@@H](C)CO)C[C@H](C)[C@H](CN(C)S(=O)(=O)c1cn(C)cn1)O2`, for which the cytotoxicity call in assay [1] and in assay [2] was “inactive” throughout. In addition, in assay [3], the growth inhibition call was “inactive”.

As to `C[C@@H]1CCCCO[C@H](CN(C)C(=O)Nc2ccc3c(c2)OCO3)[C@@H](C)CN([C@H](C)CO)C(=O)c2cc(NC(=O)Nc3ccc4c(c3)OCO4)ccc2O1`, the cytotoxicity call in assay [1] and in assay [2] was “inactive” in each case. The growth inhibition call in assay [3] was “inactive”.

For `C[C@@H]1CN([C@@H](C)CO)C(=O)CCCn2nncc2CO[C@H]1CN(C)C(=O)Nc1cccc(Oc2ccccn2)c1`, the cytotoxicity call in assay [1] and in assay [2] was “inactive” throughout. Moreover, the growth inhibition call in assay [3] was “inactive”.

On to `COc1cc2c(cc1OC)C(=O)NCC2`, for which, in assay [1], the cytotoxicity call is “inactive”. For the same compound, in assay [2], the cytotoxicity call is “active”. The growth inhibition call in assay [3] is “inactive”.

With `COc1ccc(S(=O)(=O)Nc2ccc3c(c2)C(=O)N([C@H](C)CO)C[C@@H](C)[C@H](CN(C)S(=O)(=O)c2ccc(F)cc2)O3)cc1`, the cytotoxicity call in assay [1] and in assay [2] was “inactive” in each case. In assay [3], the growth inhibition call is “inactive”.

As to `C[C@@H]1CCCCO[C@H](CN(C)C(=O)NC2CCCCC2)[C@@H](C)CN([C@@H](C)CO)C(=O)c2cc(NC(=O)C3CCCCC3)ccc2O1`, the cytotoxicity call in assay [1] and in assay [2] was “inactive” throughout. The growth inhibition call in assay [3] is “inactive”.

`C[C@H]1CN([C@@H](C)CO)C(=O)c2cc(NC(=O)c3ccncc3)ccc2O[C@H]1CN(C)S(=O)(=O)c1ccc(F)cc1`: the cytotoxicity call in assay [1] and in assay [2] was “inactive” each time. The growth inhibition call in assay [3] is “inactive”.

`COc1ccc(S(=O)(=O)N(C)C[C@@H]2OCc3cn(nn3)CCCC(=O)N([C@@H](C)CO)C[C@H]2C)cc1`: the cytotoxicity call in assay [1] and in assay [2] was “inactive” throughout. In assay [3], the growth inhibition call was “inactive”.

In the case of `Cn1cc(N)cn1`, the cytotoxicity call in assay [1] and in assay [2] was “inactive” throughout. In addition, the growth inhibition call in assay [3] was “inactive”.

In the case of `COc1cccc(CNC(=O)c2cc3c(c(-c4cccc(-c5ccncc5)c4)n2)[C@@H](CCO)N([S@](=O)C(C)(C)C)C3)c1`, the cytotoxicity call in assay [1] and in assay [2] was “inactive” each time. The growth inhibition call in assay [3] is “inactive”.
